Eight molecules from PMC12635257 can be followed below.

Chains of the proteins cited; added tags and fusions are not shown. Lines headed by an entry give the natural chain unless they say otherwise; changes in a name come on top. A line that says so, or that is headed by a name, gives the form on record, which may keep a tag or linker. Residues count along the entry.
UniProt Q16637: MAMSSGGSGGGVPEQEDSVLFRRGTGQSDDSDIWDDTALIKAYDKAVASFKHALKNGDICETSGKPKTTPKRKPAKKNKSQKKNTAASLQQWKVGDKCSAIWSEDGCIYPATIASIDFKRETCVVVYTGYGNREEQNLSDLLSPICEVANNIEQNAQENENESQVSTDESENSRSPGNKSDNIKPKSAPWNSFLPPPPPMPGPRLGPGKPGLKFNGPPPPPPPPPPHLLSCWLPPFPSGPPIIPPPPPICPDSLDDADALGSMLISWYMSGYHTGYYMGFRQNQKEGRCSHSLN
GST-tagged Tudor domain of SMN (wild type): residues 91-151 of Q16637
GST-tagged Tudor domain of SMN, methylarginine binding deficient E134K mutant (Q16637, form named): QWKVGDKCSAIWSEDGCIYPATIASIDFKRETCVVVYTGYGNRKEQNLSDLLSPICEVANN
UniProt Q9H7E2, residues 555-615: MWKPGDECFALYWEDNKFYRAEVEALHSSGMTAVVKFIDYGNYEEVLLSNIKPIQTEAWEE
UniProt Q86U44: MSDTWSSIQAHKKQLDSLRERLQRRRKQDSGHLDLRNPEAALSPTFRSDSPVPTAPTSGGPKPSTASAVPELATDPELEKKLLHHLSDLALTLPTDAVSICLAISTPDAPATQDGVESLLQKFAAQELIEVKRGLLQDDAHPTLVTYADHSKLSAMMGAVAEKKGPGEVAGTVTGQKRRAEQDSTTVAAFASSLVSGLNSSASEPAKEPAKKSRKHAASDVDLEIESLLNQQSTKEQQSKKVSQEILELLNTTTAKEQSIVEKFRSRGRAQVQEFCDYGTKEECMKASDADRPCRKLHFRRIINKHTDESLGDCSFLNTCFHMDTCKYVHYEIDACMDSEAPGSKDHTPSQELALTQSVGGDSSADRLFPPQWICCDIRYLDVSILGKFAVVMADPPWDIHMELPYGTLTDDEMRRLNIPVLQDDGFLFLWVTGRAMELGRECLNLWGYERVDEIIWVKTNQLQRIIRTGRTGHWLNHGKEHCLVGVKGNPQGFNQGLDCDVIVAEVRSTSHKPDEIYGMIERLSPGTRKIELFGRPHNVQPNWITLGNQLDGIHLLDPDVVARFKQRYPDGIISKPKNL

Experiment [1] has as its target T1, METTL14 (endogenous) (human (endogenous in HeLa)) (UniProt Q9HCE5).
T1 sequence: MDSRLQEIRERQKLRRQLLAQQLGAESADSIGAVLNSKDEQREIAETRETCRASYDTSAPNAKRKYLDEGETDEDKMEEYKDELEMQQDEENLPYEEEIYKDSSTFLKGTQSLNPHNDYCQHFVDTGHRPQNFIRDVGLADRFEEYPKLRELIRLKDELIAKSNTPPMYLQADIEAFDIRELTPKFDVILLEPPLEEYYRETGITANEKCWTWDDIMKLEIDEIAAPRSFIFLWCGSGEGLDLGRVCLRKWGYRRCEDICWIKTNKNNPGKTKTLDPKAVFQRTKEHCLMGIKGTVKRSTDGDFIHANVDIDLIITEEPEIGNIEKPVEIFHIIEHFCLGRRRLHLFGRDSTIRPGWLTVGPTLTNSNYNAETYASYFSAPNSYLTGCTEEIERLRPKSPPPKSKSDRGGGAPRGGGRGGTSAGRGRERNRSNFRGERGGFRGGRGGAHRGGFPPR
Kind of experiment: co-IP; endogenous proteins; IP with IgG control, METTL14 or SMN antibodies, western blot for the other protein; co-IP buffer 50 mM Tris-HCl pH 7.4, 150 mM NaCl, 15 mM MgCl2, 5 mM EDTA, 0.1% NP-40.

Experiment [2] deals with T2, Flag-tagged C-terminus truncated (1-400) METTL14 (human) (UniProt Q9HCE5).
T2 sequence: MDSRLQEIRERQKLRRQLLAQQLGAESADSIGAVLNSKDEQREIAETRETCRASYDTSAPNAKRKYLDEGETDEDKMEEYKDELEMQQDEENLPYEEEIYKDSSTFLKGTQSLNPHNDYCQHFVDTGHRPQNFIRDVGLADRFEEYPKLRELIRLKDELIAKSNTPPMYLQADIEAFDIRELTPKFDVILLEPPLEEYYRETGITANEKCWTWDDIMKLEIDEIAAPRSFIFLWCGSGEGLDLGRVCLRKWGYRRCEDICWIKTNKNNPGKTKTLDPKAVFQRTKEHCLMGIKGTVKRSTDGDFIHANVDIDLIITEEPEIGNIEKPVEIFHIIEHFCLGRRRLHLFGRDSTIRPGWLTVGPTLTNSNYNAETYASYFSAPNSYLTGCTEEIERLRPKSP
As to the kind of experiment: co-IP; HeLa cells transfected with Flag-tagged METTL14 (WT, RK, 1-400), METTL3 or WTAP; endogenous SMN detected by western blot; co-IP buffer 50 mM Tris-HCl pH 7.4, 150 mM NaCl, 15 mM MgCl2, 5 mM EDTA, 0.1% NP-40; also in siPRMT1 or siPRMT5 cells and in cells treated with MS023, EPZ015666 or both. For orientation: In western blotting, separated proteins are transferred to a membrane and probed.

The target of experiment [3] is GST-tagged Tudor domain of SMN, methylarginine binding deficient E134K mutant (human) (UniProt Q16637). As to the kind of experiment: pull-down; purified GST-tagged Tudor domains incubated with HeLa cell lysates (endogenous proteins) overnight at 4 °C, Glutathione Sepharose beads 2 h; 20 mM Tris-HCl pH 7.4, 150 mM NaCl, 0.1% NP-40; western blot; also with lysates of siControl or siPRMT1 cells and of cells treated with MS023, EPZ015666 or both; only the target purified.

Experiment [4] has as its target GST-tagged Tudor domain of SMN (wild type) (human) (UniProt Q16637). The experiment is described as above.
In experiment [5] the target is GST-tagged Tudor domain of TDRD3 (wild type) (UniProt Q9H7E2). The description is as above.
In experiment [6] the target is GST-tagged Tudor domain of SMN (wild type) (human) (UniProt Q16637). Kind of experiment: pull-down; GST-SMN Tudor domain with cell lysates treated with RNase A (Appendix Fig. S1A); only the target purified.
Experiment [7] concerns the target SMN (endogenous) (human (endogenous in HeLa)) (UniProt Q16637). As to the kind of experiment: co-IP; endogenous proteins; IP with IgG control, METTL14 or SMN antibodies, western blot for the other protein; co-IP buffer 50 mM Tris-HCl pH 7.4, 150 mM NaCl, 15 mM MgCl2, 5 mM EDTA, 0.1% NP-40.
In experiment [8] the target is Flag-tagged SMN, wild type (human) (UniProt Q16637). Kind of experiment: co-IP; Flag-tagged WT or E134K SMN; METTL14 detected by western blot.
Experiment [9] deals with Flag-tagged SMN, methylarginine binding deficient mutant (E134K) (human) (UniProt Q16637). Described as above.
Experiment [10] addresses GST-tagged Tudor domain of SMN (wild type) (human) (UniProt Q16637). Kind of experiment: pull-down; Appendix Fig. S1C,D (legend not shown); SMA-derived mutants of the SMN Tudor domain, listed as pGEX-4T-1 (GST) constructs in the reagents table, against METTL14; only the target purified.
For experiment [11] the target is unchanged. As to the kind of experiment: pull-down; recombinant GST-SMN Tudor domain incubated with lysates of HeLa cells transfected with Flag-tagged METTL14 (FL, 1-400, 5RK, 8RK, 10RK, 13RK); 20 mM Tris-HCl pH 7.4, 150 mM NaCl, 0.1% NP-40, 4 °C; only the target purified.

These are yes or no findings as the source states them, for the method shown. Binding seen in cells or lysates may run through a third protein. Some results given as binding are weak or reduced against the parent protein; the word gives no strength. For part of these data: Sequences can lack the tags named with a protein.

For “SMN (endogenous) (from UniProt Q16637 1-294)”, the binding result in [1] is listed as “binds”; in experiment [2], “no binding”.
Regarding “METTL3 (endogenous) (from UniProt Q86U44 1-580)”, the binding result is on record as “no binding” in [3], “binds” in experiment [4] and “no binding” in experiment [5].

B1: METTL14 (endogenous) (protein, UniProt Q9HCE5 1-456)
chain: MDSRLQEIRERQKLRRQLLAQQLGAESADSIGAVLNSKDEQREIAETRETCRASYDTSAPNAKRKYLDEGETDEDKMEEYKDELEMQQDEENLPYEEEIYKDSSTFLKGTQSLNPHNDYCQHFVDTGHRPQNFIRDVGLADRFEEYPKLRELIRLKDELIAKSNTPPMYLQADIEAFDIRELTPKFDVILLEPPLEEYYRETGITANEKCWTWDDIMKLEIDEIAAPRSFIFLWCGSGEGLDLGRVCLRKWGYRRCEDICWIKTNKNNPGKTKTLDPKAVFQRTKEHCLMGIKGTVKRSTDGDFIHANVDIDLIITEEPEIGNIEKPVEIFHIIEHFCLGRRRLHLFGRDSTIRPGWLTVGPTLTNSNYNAETYASYFSAPNSYLTGCTEEIERLRPKSPPPKSKSDRGGGAPRGGGRGGTSAGRGRERNRSNFRGERGGFRGGRGGAHRGGFPPR
As for B1, the binding result is “binds” in [6]; “binds” in experiment [7]; “binds” in experiment [8]; “no binding” in [9]; “binds” in [10]; “no binding” in [3]. Also, the values for the binding entry in [4] and in experiment [5] were “binds” and “no binding”, respectively.

B2: Flag-tagged METTL14 5RK (R438/442/445/450/456K) (protein, UniProt Q9HCE5 1-456)
chain: MDSRLQEIRERQKLRRQLLAQQLGAESADSIGAVLNSKDEQREIAETRETCRASYDTSAPNAKRKYLDEGETDEDKMEEYKDELEMQQDEENLPYEEEIYKDSSTFLKGTQSLNPHNDYCQHFVDTGHRPQNFIRDVGLADRFEEYPKLRELIRLKDELIAKSNTPPMYLQADIEAFDIRELTPKFDVILLEPPLEEYYRETGITANEKCWTWDDIMKLEIDEIAAPRSFIFLWCGSGEGLDLGRVCLRKWGYRRCEDICWIKTNKNNPGKTKTLDPKAVFQRTKEHCLMGIKGTVKRSTDGDFIHANVDIDLIITEEPEIGNIEKPVEIFHIIEHFCLGRRRLHLFGRDSTIRPGWLTVGPTLTNSNYNAETYASYFSAPNSYLTGCTEEIERLRPKSPPPKSKSDRGGGAPRGGGRGGTSAGRGRERNRSNFRGEKGGFKGGKGGAHKGGFPPK
Regarding B2, in experiment [11], the binding entry is on record as “no binding”.

B3: Flag-tagged METTL14 8RK (R429/431/435/438/442/445/450/456K) (protein, UniProt Q9HCE5 1-456)
chain: MDSRLQEIRERQKLRRQLLAQQLGAESADSIGAVLNSKDEQREIAETRETCRASYDTSAPNAKRKYLDEGETDEDKMEEYKDELEMQQDEENLPYEEEIYKDSSTFLKGTQSLNPHNDYCQHFVDTGHRPQNFIRDVGLADRFEEYPKLRELIRLKDELIAKSNTPPMYLQADIEAFDIRELTPKFDVILLEPPLEEYYRETGITANEKCWTWDDIMKLEIDEIAAPRSFIFLWCGSGEGLDLGRVCLRKWGYRRCEDICWIKTNKNNPGKTKTLDPKAVFQRTKEHCLMGIKGTVKRSTDGDFIHANVDIDLIITEEPEIGNIEKPVEIFHIIEHFCLGRRRLHLFGRDSTIRPGWLTVGPTLTNSNYNAETYASYFSAPNSYLTGCTEEIERLRPKSPPPKSKSDRGGGAPRGGGRGGTSAGRGREKNKSNFKGEKGGFKGGKGGAHKGGFPPK
For the molecule B3, the binding result in [11] is reported as “no binding”.

B4: Flag-tagged METTL14 10RK (R425/427/429/431/435/438/442/445/450/456K) (protein, UniProt Q9HCE5 1-456)
chain: MDSRLQEIRERQKLRRQLLAQQLGAESADSIGAVLNSKDEQREIAETRETCRASYDTSAPNAKRKYLDEGETDEDKMEEYKDELEMQQDEENLPYEEEIYKDSSTFLKGTQSLNPHNDYCQHFVDTGHRPQNFIRDVGLADRFEEYPKLRELIRLKDELIAKSNTPPMYLQADIEAFDIRELTPKFDVILLEPPLEEYYRETGITANEKCWTWDDIMKLEIDEIAAPRSFIFLWCGSGEGLDLGRVCLRKWGYRRCEDICWIKTNKNNPGKTKTLDPKAVFQRTKEHCLMGIKGTVKRSTDGDFIHANVDIDLIITEEPEIGNIEKPVEIFHIIEHFCLGRRRLHLFGRDSTIRPGWLTVGPTLTNSNYNAETYASYFSAPNSYLTGCTEEIERLRPKSPPPKSKSDRGGGAPRGGGRGGTSAGKGKEKNKSNFKGEKGGFKGGKGGAHKGGFPPK
Consider B4, for which the binding result in experiment [11] is listed as “no binding”.

B5: Flag-tagged C-terminus truncated (1-400) METTL14 (domain or fragment, UniProt Q9HCE5 1-400)
chain: MDSRLQEIRERQKLRRQLLAQQLGAESADSIGAVLNSKDEQREIAETRETCRASYDTSAPNAKRKYLDEGETDEDKMEEYKDELEMQQDEENLPYEEEIYKDSSTFLKGTQSLNPHNDYCQHFVDTGHRPQNFIRDVGLADRFEEYPKLRELIRLKDELIAKSNTPPMYLQADIEAFDIRELTPKFDVILLEPPLEEYYRETGITANEKCWTWDDIMKLEIDEIAAPRSFIFLWCGSGEGLDLGRVCLRKWGYRRCEDICWIKTNKNNPGKTKTLDPKAVFQRTKEHCLMGIKGTVKRSTDGDFIHANVDIDLIITEEPEIGNIEKPVEIFHIIEHFCLGRRRLHLFGRDSTIRPGWLTVGPTLTNSNYNAETYASYFSAPNSYLTGCTEEIERLRPKSP
With B5, the binding entry in experiment [11] is “no binding”.

B6: Flag-tagged METTL14 13RK (R408/414/418/425/427/429/431/435/438/442/445/450/456K) (protein, UniProt Q9HCE5 1-456)
chain: MDSRLQEIRERQKLRRQLLAQQLGAESADSIGAVLNSKDEQREIAETRETCRASYDTSAPNAKRKYLDEGETDEDKMEEYKDELEMQQDEENLPYEEEIYKDSSTFLKGTQSLNPHNDYCQHFVDTGHRPQNFIRDVGLADRFEEYPKLRELIRLKDELIAKSNTPPMYLQADIEAFDIRELTPKFDVILLEPPLEEYYRETGITANEKCWTWDDIMKLEIDEIAAPRSFIFLWCGSGEGLDLGRVCLRKWGYRRCEDICWIKTNKNNPGKTKTLDPKAVFQRTKEHCLMGIKGTVKRSTDGDFIHANVDIDLIITEEPEIGNIEKPVEIFHIIEHFCLGRRRLHLFGRDSTIRPGWLTVGPTLTNSNYNAETYASYFSAPNSYLTGCTEEIERLRPKSPPPKSKSDKGGGAPKGGGKGGTSAGKGKEKNKSNFKGEKGGFKGGKGGAHKGGFPPK
Consider B6, for which, in experiment [11], the binding result is reported as “no binding”.
